Paper PMC12136788
Numbering of substitutions follows the chain as printed. The list shows a part of the results.

T1: UNK ZnF1-3 (human, UniProt Q9C0B0 31-174)
T1 sequence: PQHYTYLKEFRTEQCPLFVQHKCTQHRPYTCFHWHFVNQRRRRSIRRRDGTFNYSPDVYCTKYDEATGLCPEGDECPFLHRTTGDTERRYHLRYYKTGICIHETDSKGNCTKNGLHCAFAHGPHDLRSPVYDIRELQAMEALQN

B1: chr1:163112212:163112213:-_ENSG00000143248_ENST00000313961|hu_hu|hu_hu_hu_mus_False|18_98 (ssRNA)
RNA: GGGAGUUCUACAGUCCGACGAUCUUUUAUUAUCAGUAAGCAUGAGUUACAUACUAGGCAAAGUAUUGGAUACAAUAAUCAGGAAACAAACACUAUUGGUCCAGAAUUUAAAACUUUUGGGAUAAAUUGCUGGCACAGGACUUACAACAGAGGAUUGAGCAUCA
B2: chr11:77336104:77336105:-_ENSG00000074201_ENST00000525064|hu_mus|hu_hu_hu_mus_False|78_88 (ssRNA)
RNA: GGGAGUUCUACAGUCCGACGAUCCUCACACAUUGCUGUGAACAUCGCCUCCAACGCUGAUUUAUCACUGGGCACAAAUCGAAAUUCAGAAAUGGGUUCAACAUCAUCAUUGUCUUCCUCAUCUUCAUCAGAGAGAGGUUCUUUCAACAGAGGAUUGAGCAUCA
B3: chr18:46664354:46664355:-_ENSMUSG00000033319_ENSMUST00000036226|mus_mus|FALSE|FALSE (ssRNA)
RNA: GGGAGUUCUACAGUCCGACGAUCCGGUUCAGGGAACACUGUAGCAGAAAUGGUUUGGGAGAAAAAGUGGAAACAGGCAAAACUUGAAGACAGAAGUGGGAGCCAGGGGAGGAUGACUUCCAAUUGUAUAAAAUUCACAUACUACAACAGAGGAUUGAGCAUCA
B4: 91403186_91404512_1351_CDS_ENSMUSG00000040549_ENSMUST00000099716|mouse|control|control (ssRNA)
RNA: GGGAGUUCUACAGUCCGACGAUCAGCAUCUCUGACUUCAGGAGCAGAAUCAUUGAUGUGCUUAAGUAGAGCAGCACAAAAGGGUUUUAGUAGACUCUUCGGCAAUGUAGAGGAAGUGCAGUGACGAAAGCUUCUUGCAAUAAACAACAGAGGAUUGAGCAUCA
B5: chr12:118673417:118673418:-_ENSG00000135090_ENST00000392533|hu_hu|FALSE|FALSE (ssRNA)
RNA: GGGAGUUCUACAGUCCGACGAUCAGGUGUGCCCACGAAGGAGUUGGCAGGAGAAGCCAUUGAAGCAGAUCCAAAAUCAGCUAGUUUUACCUGACCUGGCUCUGUUAGAAGAAUAUUUCCUGCUUUAAUAUCCCUAUGAAUCAACAACAGAGGAUUGAGCAUCA
B6: chr5:22955990:22955991:+_ENSMUSG00000029004_ENSMUST00000094962|mus_hu|FALSE|FALSE (ssRNA)
RNA: GGGAGUUCUACAGUCCGACGAUCUGCAUUGGUAUCCAAAACACUGGGGCAUGCCAGCCACAGUGCUCAUUGCAAACAUCUAAGUGCAUCCACAAACCCAUGAGAUGUCUGGUAAAUCUGAGGUCCAAGAAAGAAUAAAUGUCUCAACAGAGGAUUGAGCAUCA
B7: chr1:175956164:175956165:-_ENSG00000143207_ENST00000367666|hu_hu|motif|central (ssRNA)
RNA: GGGAGUUCUACAGUCCGACGAUCAGCAGCAAUCAGCACAUUGGACUCCCCAUCUGGUAGUGCCCUCCAGCACACAGCACGGACAAAUUCAUUUGUAUCAUCUUCUUUUCGGUCUUUGUCGAGAACACUUUUGACUGUAUCAAACAACAGAGGAUUGAGCAUCA
B8: chr3:119450855:119450856:-_ENSMUSG00000028134_ENSMUST00000029780|mus_hu|FALSE|FALSE (ssRNA)
RNA: GGGAGUUCUACAGUCCGACGAUCUGUGGUGCCACUAAGAGGAGUAUUUGCUGUCUGGACAGCUGUCACAGCUUGAAGAACUGCCUGAGCACGUUGGUUUAAUGUAUUAUCUGUCUUUAGUUCUUUGUGAUUCGAGUACUGGAUCAACAGAGGAUUGAGCAUCA
B9: chr7:141438946:141438947:+_ENSG00000106028_ENST00000265304|hu_mus|hu_hu_hu_mus_True|38_58 (ssRNA)
RNA: GGGAGUUCUACAGUCCGACGAUCGACGAAAUACCUGUAACACAGGUCUUCGAAACAUGGCUUCUGUUUUUCUUACAGUCUAAUCUUUAGGCUUUUCCUGACGAUCUGAAAGAAAAGAGAAAAAUGAUAAAUCAAGAAACUACACAACAGAGGAUUGAGCAUCA
B10: chr2:225400320:225400321:-_ENSG00000036257_ENST00000409096|hu_mus|FALSE|FALSE (ssRNA)
RNA: GGGAGUUCUACAGUCCGACGAUCAUUUUCUACAUUAUUCUGUUGUACAUAUACACGGUCCAUAUACAUUAAUAUGUCUCUAAUCAUCACCAUGGCUGUUUGAUGAUCAUUCCAAGCUUGAUUUAGUGUUUGAAGAAAGUUGUUCAACAGAGGAUUGAGCAUCA
B11: chr3:119450855:119450856:-_ENSMUSG00000028134_ENSMUST00000029780|mus_mus|motif|central (ssRNA)
RNA: B8 RNA with A42U, A60C, U81G, C84U, A87C, C132G
B12: 35990427_35990547_4149_CDS_ENSMUSG00000061607_ENSMUST00000082337|mouse|control|control (ssRNA)
RNA: GGGAGUUCUACAGUCCGACGAUCAGAGGUGGAAGGCUCAAAAUCAGGGGCCACUGGCCCAACUGAUUCACAAUCUUCAGUGGAGGGUUUAUAUGUCCUUCCCUGAGUGACCAGAGCUGUAGGCUUAGGGGCAGGCUGUUUUUUCAACAGAGGAUUGAGCAUCA
B13: chr17:17165348:17165349:-_ENSG00000141030_ENST00000268717|hu_hu|motif|central (ssRNA)
RNA: GGGAGUUCUACAGUCCGACGAUCAAUUUGAGAUGUAUAUUUUGGUAGCUGUUGUACUUUGCCAAGUAAUAUCAAAGACACGGAAAUAUACUUUUUAUAUGAUUCCAACAUGAUAUGACUGACCGCCAUGGCAGGAGUAGUUAUCAACAGAGGAUUGAGCAUCA
B14: 6378624_6387464_541_CDS_ENSG00000097021_ENST00000608083|human|control|control (ssRNA)
RNA: GGGAGUUCUACAGUCCGACGAUCGACAGUGUUCGGCUCUGGGUUGAGGACUGGCUGGACGAUGUCCCCGUUCCUCCACUUGGUCUCCAUGCGCUCCAGCUUCUGGGCUUCAUACCGCUUCCGGCCCUCCUCCUCCUGCUCCUGCAACAGAGGAUUGAGCAUCA
B15: chr7:151048522:151048523:+_ENSG00000013374_ENST00000566856|hu_mus|hu_hu_hu_mus_True|18_28 (ssRNA)
RNA: GGGAGUUCUACAGUCCGACGAUCCUGUUUCUUAUUUAUUACGAUCUUGAUGUAAUUUUCUUGAAAUCCGAAAGUUUCAGCUAUUUGACACCUCAGGUCUCUACCAGUGAUGUGCAAUCGGGUCUCCAACAAGCUUUUCUUAUCCAACAGAGGAUUGAGCAUCA
B16: chr17:6048899:6048900:-_ENSMUSG00000015659_ENSMUST00000097432|mus_mus|FALSE|FALSE (ssRNA)
RNA: GGGAGUUCUACAGUCCGACGAUCUUUGACUUCCAGUGAGGGAAAGAGAAGAUAUCGAAUAUUAACGGAGUAUUCAGCCAAACGUGACCCAUGGUGAGGGACACUGUAAAAAAUAAUUCCUCUGGUAUUGUUUAUAAGAGCAUUCAACAGAGGAUUGAGCAUCA
B17: chr16:45382771:45382772:-_ENSMUSG00000022661_ENSMUST00000163230|mus_mus|mus_mus_mus_hu_True|58_58 (ssRNA)
RNA: GGGAGUUCUACAGUCCGACGAUCCUGGGUCAUGUUAUAAGACAAAUGGACAGGGAGGGCAUGCUUCUCAAAAAAUGUGAACUACUCUCUAAGACUAACAAUAUUUAUCUAGCUAUAAAAAUAAGUUAAAUGAAUAAGUUAAGACAACAGAGGAUUGAGCAUCA
B18: chr18:25532265:25532266:-_ENSG00000170558_ENST00000399380|hu_mus|motif|central (ssRNA)
RNA: GGGAGUUCUACAGUCCGACGAUCGGAGUUGAGGGAGCUCAAGGAGCCAGCCGUGGAGCCGCUGCCCUCGUAGUCAAAGACGGAGAGGGAGUCAUACGGUGGCGCCGUGGGGUCGUUGUCAGCAGCUUUAAGGCCCUCAUUAAUCAACAGAGGAUUGAGCAUCA
B19: chr3:52726942:52726943:+_ENSG00000163938_ENST00000418458|hu_hu|motif|central (ssRNA)
RNA: GGGAGUUCUACAGUCCGACGAUCUCGCAGAGCAAGCGCAGAGGAGGAAUUAAGUGGAGAUACGAUGAAGCUCGGACGGUCGGUGAUUGUGAUCUGUUUGUCCAAGGGGACAACUUGCAUGCUCCUUGUAAGCCCCAUGGAUACCAACAGAGGAUUGAGCAUCA
B20: chr12:48362563:48362564:+_ENSG00000134291_ENST00000256686|hu_hu|hu_hu_hu_mus_False|38_58 (ssRNA)
RNA: GGGAGUUCUACAGUCCGACGAUCUCCGUCAAGCCCUUCGAUAGACCCUUGCGGGGGAAACUGUAAUCACUUUGUAUUUCUAAAAAAAAGAAACGCCAACACACUUUCAAAAAGCGGGGGUGGGGUGAGGCGGGAGGGGGAGGUCAACAGAGGAUUGAGCAUCA
B21: chr3:197553776:197553777:+_ENSG00000186001_ENST00000438796|hu_mus|FALSE|FALSE (ssRNA)
RNA: GGGAGUUCUACAGUCCGACGAUCGCACGAGAAGUCGAGCCGUAUCAAAGGCACCUCUGCCAGCUCUUCAGGCAAGCGUAGAAGAUGAUUUCUUCUUACAUUGAAGUCUCUCAAGGCUUCCAGAUUACCAAUUUGGGAAGGCACCAACAGAGGAUUGAGCAUCA
B22: chr14:89307221:89307222:+_ENSG00000165533_ENST00000346301|hu_mus|hu_hu_hu_mus_False|18_98 (ssRNA)
RNA: GGGAGUUCUACAGUCCGACGAUCUCCUGUUUGGUUAGUUCCAGGGAGCUUCAAAGAUGUGCCAGGGCGUGGGACCUGAGCAAUAGCAUUUUCAUCCAGGAUCAUUUCAGCAAUUCCUUCCUGAUCUACAUCAAUUUCAUCUAUCAACAGAGGAUUGAGCAUCA

molecular target: T1, UNK ZnF1-3; assay: nsRBNS (natural sequence RNA bind-n-seq); RBNS binding buffer (assumed for nsRBNS): 25 mM Tris pH 7.5, 150 mM KCl, 3 mM MgCl2, 0.01% Triton X-100, 500 ug/ml BSA, 20 U/ml SUPERase-In, 4 C; UNK is unkempt and MSI1 is Musashi-1; names of the RNAs are library labels; protein concentration not given here; high values mean tight binding

Compared with B1, B2 is lower in binding signal: 1.48 enrichment R for the first, 1.13 enrichment R for the second.

First: B3
Second: B4
The binding signal of the first is higher: 3.07 enrichment R for the first, 1.32 enrichment R for the second.

Compared with B5, B6 is higher in binding signal: 0.542 enrichment R for the first, 0.839 enrichment R for the second.

First: B7
Second: B8
The binding signal of the first is higher: 1.03 enrichment R for the first, 0.725 enrichment R for the second.

Going from B9 to B10, the binding signal falls from 0.591 enrichment R to 0.461 enrichment R.

First: B11
Second: B12
The binding signal of the first is lower: 0.763 enrichment R for the first, 1.2 enrichment R for the second.

Compared with B13, B14 is lower in binding signal: 0.639 enrichment R for the first, 0.611 enrichment R for the second.

First: B15
Second: B16
The binding signal of the first is lower: 0.502 enrichment R for the first, 1.41 enrichment R for the second.

Going from B17 to B18, the binding signal rises from 1.02 enrichment R to 1.4 enrichment R.

Compared with B19, B20 is higher in binding signal: 0.89 enrichment R for the first, 2.67 enrichment R for the second.

Going from B21 to B22, the binding signal falls from 0.85 enrichment R to 0.749 enrichment R.
